# PubChem BioAssay AID1347073 (National Center for Advancing Translational Sciences (NCATS), 2019)
# In all, about 45,000 compounds went through this assay and about 200 (0.44%) were called active. Inconclusive results (about 7%) are left out. The call rests on the fitted dose curve; in most records, active means well fitted activation curve with a large enough effect; inconclusive means small, poorly fitted or top-dose-only effect; inactive means no such curve, though single readings can be large or run the other way. This is one part of the list.
# Test: qHTS of TDP-43 Inhibitors: NCGC Sytravon Library Screen; further: 0% is about no effect; nearly all actives have a fitted effect of over 55% in size
# Details: yeast TDP-43 toxicity rescue, BacTiter-Glo growth, 24 h; series mostly up to 46.1 µM; growth rescue (activation): at the top concentration
# Summary of the method: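 TDP-43-expressing yeast, pregrown in raffinose, seeded at OD600 0.02 in galactose medium with compound for 24 hr at 30 deg C. Growth read by BacTiter-Glo luminescence, so rescue of toxicity appears as activation.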
row,Structure (SMILES),growth rescue (activation)
1,COCCN(CCOC)C(=S)Nc1ccccc1,inactive: -1.81%
2,O=C(CSc1nnnn1C1CCCCC1)N1CCN(C(=O)c2ccco2)CC1,inactive: -11.3%
3,CC1CCCCC12NC(=O)N(CC(=O)Nc1nccs1)C2=O (stereo not drawn),inactive: 5.3%
4,NS(=O)(=O)c1cccc(NC(=O)CC2(CC(=O)O)CCCC2)c1,inactive: 12.8%
5,O=C(Cn1cc([N+](=O)[O-])ccc1=O)N1CCc2ccccc21,inactive: -35.6%
6,COCCSc1nnc(NC(=O)Cc2ccc(OC)cc2)s1,inactive: -1%
7,O=C(CCC1CCCN(C(=O)C2=CCCC2)C1)N1CCN(c2ccccn2)CC1 (stereo not drawn),inactive: 12.9%
8,CCc1cccc(C)c1NC(=O)CCCSc1nc2ccccc2s1,inactive: -1.76%
9,COc1cccc(OC)c1NC(=O)CN(C)S(=O)(=O)c1ccc2c(c1)OCCO2,inactive: 19.7%
10,COc1ccc(S(=O)(=O)N2CC(C)N(S(=O)(=O)c3ccc(OC)cc3)CC2C)cc1 (stereo not drawn),inactive: -7.24%
11,Cc1ccc(S(=O)(=O)N2CCCCCC2)cc1C(=O)NCc1ccccn1,inactive: 1.72%
12,COc1cccc(CNC(=O)CCNS(=O)(=O)c2cccc3nonc23)c1,inactive: 14.8%
13,CN(Cc1ccc(-n2cccn2)cc1)Cc1cn(C)nc1-c1ccccc1F,inactive: 15.3%
14,O=C(NCCCNC(=O)c1ccccn1)c1ccc(F)cc1,inactive: -7.26%
15,Cc1noc(C)c1CSc1ncnc2sc(C)c(C)c12,inactive: 18.7%
16,CN(C)c1cc2c(cc1NS(=O)(=O)c1ccccc1)n(C)c(=O)n2C,inactive: 4.62%
17,CN1/C(=C\C(=O)Nc2ccc(Cl)cc2)C(C)(C)c2ccccc21,inactive: 5.8%
18,O=S(=O)(NCc1cc(-c2ccccc2)no1)c1ccccc1Cl,inactive: 13.4%
19,OC(COc1ccc2c(c1)OCO2)CN1CCN(c2ccccc2)CC1 (stereo not drawn),inactive: 2.21%
20,COc1ccc(C(=O)NC(=S)Nc2ccc(S(=O)(=O)Nc3cc(OC)nc(OC)n3)cc2)cc1,inactive: -0.373%
21,COc1ccc(-c2nn(-c3ccccc3)cc2CN2CCCO2)c(F)c1,inactive: 9.49%
22,Cc1ccc(C)c(OCC(=O)O/N=C(\N)c2cccnc2)c1,inactive: 35.1%
23,CCC(C)NC(=O)c1[nH]c(C)c(C(=O)OC)c1C (stereo not drawn),inactive: 25.8%
24,COc1cc(NS(=O)(=O)c2ccc(NC(=O)Cc3ccccc3)cc2)nc(OC)n1,inactive: 6%
25,Fc1cccc(C2CCCCN2Cc2nc(C3CC3)no2)c1 (stereo not drawn),inactive: 12.9%
26,O=C(Cn1ncn2cccc2c1=O)N1CCCCC1,inactive: 23.2%
27,CCOc1ccc(NC(=S)N2CCC(NC(=O)c3ccco3)CC2)cc1,inactive: 13%

row,Structure (SMILES),growth rescue (activation)
1,O=C(Nc1ccc(N2CCN(C(=O)c3cccs3)CC2)cc1)c1ccccc1F,inactive: 7.67%
2,O=C(CNC(=O)c1ccc2c(c1)OCO2)NCc1cccs1,inactive: 2.92%
3,Cn1c(SCC2CCCO2)nnc1-c1ccc([N+](=O)[O-])cc1 (stereo not drawn),inactive: 5.46%
4,Cc1ccc(C)c(NC(=O)c2c(Cl)nc3ccccn23)c1,inactive: 12.9%
5,COc1ccc(OCC(O)CN(C)C(=O)/C=C/c2cccc([N+](=O)[O-])c2)cc1 (stereo not drawn),inactive: 5.97%
6,CCOc1ccccc1N1CCN(C(=O)c2csc(C)c2CC)CC1,inactive: 27.7%
7,Cc1noc(C)c1C(=O)N1CCC1(C)C(=O)NS(=O)(=O)c1ccc(F)cc1F (stereo not drawn),inactive: 10.4%
8,O=C(CSc1nc(O)cc(=O)n1-c1ccccc1)Nc1ccc(Br)cn1,inactive: -2.36%
9,COc1ccc(CNC(=O)C2CCCN(S(=O)(=O)c3ccc(-n4cnnn4)cc3)C2)cc1 (stereo not drawn),inactive: 8.33%
10,COc1cc(/C=N/NC(=O)C(N)=O)ccc1OC(=O)c1cccs1,inactive: -9.13%
11,Cc1cc(C)nc(NS(=O)(=O)c2ccc(NC(=O)c3ccc(S(=O)(=O)N4CC(C)OC(C)C4)cc3)cc2)n1 (stereo not drawn),inactive: 4.53%
12,COc1cc2c(cc1OC)C(c1ccccc1C)CC(=O)N2 (stereo not drawn),inactive: 3.53%
13,CS(=O)(=O)c1cccc(NC(=O)C2CCCN2S(=O)(=O)c2ccc(F)cc2)c1 (stereo not drawn),inactive: 8.55%
14,CCOC(=O)C1(C)CCCN(C(=O)c2c(F)ccc(C)c2F)C1 (stereo not drawn),inactive: 16.6%
15,C/C(=N\NC(=O)c1nnn(-c2nonc2N)c1C(C)C)c1ccncc1,inactive: -2.15%
16,COc1ccc(NC(=O)C/C(C)=N/NC(=O)C(=O)NC(C)C)c(OC)c1,inactive: -1.52%
17,O=C(Nc1cc(S(=O)(=O)N2CCCC2)ccc1Cl)c1cc(F)c(F)c(F)c1F,inactive: 1.11%
18,O=C(COC(=O)c1ccccn1)NCCc1ccc(Cl)cc1,inactive: 6.53%
19,CN(Cc1cn(C)nc1-c1cccc(Cl)c1)CC1CCCCO1 (stereo not drawn),inactive: 7.97%
20,C=CCc1ccc(OCCOCCNCCCC)c(OC)c1,inactive: -37%
21,O=C1[C@@H]2Cc3c([nH]c4ccccc34)C(c3ccccc3)N2C(=O)CN1C1CC1 (stereo partly drawn),inactive: -9.08%
22,CC1(CCc2ccccc2)NC(=S)N(c2ccccc2)N1 (stereo not drawn),inactive: 12.1%
23,COCC1CCCCN1C(=O)c1ccc2oc(CCc3ccccc3)nc2c1 (stereo not drawn),inactive: -9.74%
24,Cc1csc(SCC(=O)Nc2cc(C(N)=O)cc(C(N)=O)c2)n1,inactive: -4.94%
25,COc1ccccc1CNc1nc(Nc2ccc(C)cc2C)c2sccc2n1,inactive: -1.94%
26,COc1ccc(NC(=O)COC(=O)c2ccncc2)c(OC)c1,inactive: 2.84%
